According to patent publication US20210147571A1, “MONOCLONAL ANTIBODY TARGETING HUMAN TUMOR STEM CELLS AND USE THEREOF” (Suzhou Bojuhua Biomedical Technology Co. Ltd, priority 2017, published 2021):

Experiments:
Bel7402-V13 cells = test: flow immunofluorescence, positive cells in parental and sphere cells; assay type: binding, human
Description: (§1) The human liver cancer cell line Bel7402-V13 and MHCC97L cells were cultured for 5 days in a serum-free manner, and the Hetumomab^+ cells in the parental cells and in the cells from sphere culture were detected by viable cell flow fluorescence cytometry. […] That is, after serum-free culture, Hetumomab^+ cells of the liver cancer cell line were enriched.
(§2) As described above, four cell lines, SNU-5, BGC-823, MHCC-97L, and BEL7402 V13, were used to harvest both parental cells and tumor-stem-cell-rich sphere cells. […] The results are as follows:
(§3) According to the aforementioned method, four cell lines, SNU-5, BGC-823, MHCC-97L, and BEL7402 V13, were used to harvest both parental cells and tumor-stem-cell-rich sphere cells. […]

MHCC97L cells = test: as above; assay type: binding, human; conditions: MHCC-97L
Description: as §1, §2, §3

BGC-823 sphere cells = test: sphere-forming inhibition (self-renewal); assay type: cell-based, human
Description: (§4) The main manifestation of the self-renewal ability of tumor stem cells is the ability to form spheres in serum-free medium, which is called asymmetric division, that is, when one cell divides into two daughter cells, one of the daughter cells maintains the same features as the parental cell, while the other daughter cell may continue to divide, forming normal daughter cells. […] And then Hetumomab (250 μg/mL) was used as the experimental group, and the PBS was used as a negative control group to incubate with the cells at 37° C. for 2 h, during which the cells were mixed with the antibody or the negative control once every half an hour. 500 cells in each group were inoculated into a semi-solid sphere medium (containing EGF, LIF, bFGF, etc.) containing 0.8% methylcellulose, and cultured in an ultra-low adhesion 24-well plate. 1-1.5 mL liquid medium was added every other day, and the number of spheres formed from the two groups was observed after 14 days.

Bel7402-V13 sphere cells = test: sphere-forming inhibition (self-renewal); assay type: cell-based, human
Description: as §4

MHCC-97L sphere cells = test: sphere-forming inhibition (self-renewal); assay type: cell-based, human
Description: as §4

SNU-5 sphere cells = test: sphere-forming inhibition (self-renewal); assay type: cell-based, human
Description: as §4

[1] = test system: antigen protein in SNU-5, BGC-823, MHCC-97L, BEL7402 V13 total proteins; test: Western Blotting of tumor cell total proteins; assay type: binding, human; conditions: primary antibody 2 ug/ml
Description: Total proteins of 4 kinds of Hetumomab target antigen-positive human tumor cells SNU-5, BGC-823, MHCC-97L, BEL7402 V13 were extracted by conventional methods, and the protein concentrations were quantified by a BCA kit. An appropriate amount of the protein sample (20 μg) was separated by SDS-polyacrylamide gel electrophoresis and transferred to a PVDF membrane using a semi-dry electroporator. The PVDF membrane was then placed in blocking solution (TBST/5% skimmed milk powder) and incubated on a horizontal shaker at room temperature for 1 h. […] The membrane was then rinsed 5 times with TBST for 5 min each. Then the secondary antibody (1:2000 to 1:5000 dilution) against human IgG Fc-HRP or against mouse IgG Fc-HRP was added accordingly and incubated at room temperature for 1 h. The membrane was then rinsed 3 times with TBST for 5 min each, and then rinsed with PBS 3 times. Visualization was conducted.

[2] = test system: Hetumomab target antigen in liver, lung, gastric cancer tissue sections; test: immunohistochemistry of antigen-positive and negative tissue sections; assay type: binding, human
[3] = BGC-823, antibody 10 ug/ml, Table 27
[4] = BGC-823, antibody 10 ug/ml, Table 33
[5] = BGC-823, antibody 20 ug/ml, Table 27
[6] = BGC-823, antibody 20 ug/ml, Table 33
[7] = BGC-823, antibody 40 ug/ml, Table 27
[8] = BGC-823, antibody 40 ug/ml, Table 33
[9] = BGC-823, antibody 80 ug/ml, Table 27
[10] = BGC-823, antibody 80 ug/ml, Table 33
[11] = BGC-823, antibody 144 ug/ml, Table 27
[12] = BGC-823, antibody 160 ug/ml, Table 33
[13] = BEL7402 V13, antibody 10 ug/ml, Table 27
[14] = BEL7402 V13, antibody 10 ug/ml, Table 33
[15] = BEL7402 V13, antibody 20 ug/ml, Table 27
[16] = BEL7402 V13, antibody 20 ug/ml, Table 33
[17] = BEL7402 V13, antibody 40 ug/ml, Table 27
[18] = BEL7402 V13, antibody 40 ug/ml, Table 33
[19] = BEL7402 V13, antibody 80 ug/ml, Table 27
[20] = BEL7402 V13, antibody 80 ug/ml, Table 33
[21] = BEL7402 V13, antibody 144 ug/ml, Table 27
[22] = BEL7402 V13, antibody 160 ug/ml, Table 33
[23] = SNU-5, antibody 10 ug/ml, Table 27
[24] = SNU-5, antibody 10 ug/ml, Table 33
[25] = SNU-5, antibody 20 ug/ml, Table 27
[26] = SNU-5, antibody 20 ug/ml, Table 33
[27] = SNU-5, antibody 40 ug/ml, Table 27
[28] = SNU-5, antibody 40 ug/ml, Table 33
[29] = SNU-5, antibody 80 ug/ml, Table 27
[30] = SNU-5, antibody 80 ug/ml, Table 33
[31] = SNU-5, antibody 144 ug/ml, Table 27
[32] = SNU-5, antibody 160 ug/ml, Table 33

B1: Hetuximab: human-mouse chimeric antibody derived from Hetumomab; heavy chain SEQ ID NO:9, light chain SEQ ID NO:10 (antibody)
heavy: QVTLKESGPGILQPSQTLSLTCSFSGFSLSTSGMGVSWIRQPSGKGLEWLAHIYWDDDKRYNPSLKSRLTISKDSSNNQVFLKITSVDTADTATYYCARSFYYYANNSFAYWGQGTLVTVSS[human IgG1 constant region left out here]
light: DIVMTQAAFSNPVTLGTSASISCRSSKSLLHSNGITYLYWFLQKPGQSPQLLIYQMSNLASGVPDRFSSSGSGTDFTLRISRVEAEDVGVYYCAQNLELYTFGGGTKLEIKRTVAAPSVFIFPPSDEQLKSGTASVVCLLNNFYPREAKVQWKVDNALQSGNSQESVTEQDSKDSTYSLSSTLTLSKADYEKHKVYACEVTHQGLSSPVTKSFNRGEC
modifications: Hetuximab chimeric antibody heavy chain amino acid sequence; Hetuximab chimeric antibody light chain amino acid sequence
Bel7402-V13 cells; BEL7402 V13, Table 26
  positive rate, Parental Cells: 8.15%
  positive rate, Sphere Cells: 11.9%
Bel7402-V13 cells; BEL7402 V13, Table 32
  positive rate, Parent: 7.94% and 6.47%
  positive rate, Sphere: 14.13% and 11.83%
MHCC97L cells; Table 26
  positive rate, Parental Cells: 5.18%
  positive rate, Sphere Cells: 11.8%
MHCC97L cells; Table 32
  positive rate, Parent: 6.80% and 8.21%
  positive rate, Sphere: 13.79% and 18.47%
BGC-823 sphere cells; [3]
  Average number of formed spheres: 201
  Inhibition Rate (%): 15.2%
BGC-823 sphere cells; [4]
  Average number of formed spheres: 208.5
  Inhibition Rate (%): 17.6%
BGC-823 sphere cells; [5]
  Average number of formed spheres: 183
  Inhibition Rate (%): 22.8%
BGC-823 sphere cells; [6]
  Average number of formed spheres: 187
  Inhibition Rate (%): 26.1%
BGC-823 sphere cells; [7]
  Average number of formed spheres: 161.5
  Inhibition Rate (%): 31.9%
BGC-823 sphere cells; [8]
  Average number of formed spheres: 167
  Inhibition Rate (%): 34.0%
BGC-823 sphere cells; [9]
  Average number of formed spheres: 148
  Inhibition Rate (%): 37.6%
BGC-823 sphere cells; [10]
  Average number of formed spheres: 150.5
  Inhibition Rate (%): 40.5%
BGC-823 sphere cells; [11]
  Average number of formed spheres: 132
  Inhibition Rate (%): 44.3%
BGC-823 sphere cells; [12]
  Average number of formed spheres: 131
  Inhibition Rate (%): 48.2%
Bel7402-V13 sphere cells; [13]
  Average number of formed spheres: 190
  Inhibition Rate (%): 16.3%
Bel7402-V13 sphere cells; [14]
  Average number of formed spheres: 195.5
  Inhibition Rate (%): 15.0%
Bel7402-V13 sphere cells; [15]
  Average number of formed spheres: 169.5
  Inhibition Rate (%): 25.3%
Bel7402-V13 sphere cells; [16]
  Average number of formed spheres: 175
  Inhibition Rate (%): 23.9%
Bel7402-V13 sphere cells; [17]
  Average number of formed spheres: 143.5
  Inhibition Rate (%): 36.8%
Bel7402-V13 sphere cells; [18]
  Average number of formed spheres: 148
  Inhibition Rate (%): 35.7%
Bel7402-V13 sphere cells; [19]
  Average number of formed spheres: 124
  Inhibition Rate (%): 45.4%
Bel7402-V13 sphere cells; [20]
  Average number of formed spheres: 127
  Inhibition Rate (%): 44.8%
Bel7402-V13 sphere cells; [21]
  Average number of formed spheres: 106
  Inhibition Rate (%): 53.3%
Bel7402-V13 sphere cells; [22]
  Average number of formed spheres: 103
  Inhibition Rate (%): 55.2%
MHCC-97L sphere cells; antibody 10 ug/ml, Table 27
  Average number of formed spheres: 191.5
  Inhibition Rate (%): 17.5%
MHCC-97L sphere cells; antibody 10 ug/ml, Table 33
  Average number of formed spheres: 201
  Inhibition Rate (%): 16.6%
MHCC-97L sphere cells; antibody 20 ug/ml, Table 27
  Average number of formed spheres: 169.5
  Inhibition Rate (%): 26.9%
MHCC-97L sphere cells; antibody 20 ug/ml, Table 33
  Average number of formed spheres: 175.5
  Inhibition Rate (%): 27.2%
MHCC-97L sphere cells; antibody 40 ug/ml, Table 27
  Average number of formed spheres: 152
  Inhibition Rate (%): 34.5%
MHCC-97L sphere cells; antibody 40 ug/ml, Table 33
  Average number of formed spheres: 159
  Inhibition Rate (%): 34.0%
MHCC-97L sphere cells; antibody 80 ug/ml, Table 27
  Average number of formed spheres: 140
  Inhibition Rate (%): 39.7%
MHCC-97L sphere cells; antibody 80 ug/ml, Table 33
  Average number of formed spheres: 146
  Inhibition Rate (%): 39.4%
MHCC-97L sphere cells; antibody 144 ug/ml, Table 27
  Average number of formed spheres: 120
  Inhibition Rate (%): 48.3%
MHCC-97L sphere cells; antibody 160 ug/ml, Table 33
  Average number of formed spheres: 117
  Inhibition Rate (%): 51.5%
SNU-5 sphere cells; [23]
  Average number of formed spheres: 175
  Inhibition Rate (%): 17.8%
SNU-5 sphere cells; [24]
  Average number of formed spheres: 207
  Inhibition Rate (%): 15.6%
SNU-5 sphere cells; [25]
  Average number of formed spheres: 161.5
  Inhibition Rate (%): 24.2%
SNU-5 sphere cells; [26]
  Average number of formed spheres: 183.5
  Inhibition Rate (%): 25.1%
SNU-5 sphere cells; [27]
  Average number of formed spheres: 145.5
  Inhibition Rate (%): 31.7%
SNU-5 sphere cells; [28]
  Average number of formed spheres: 169.5
  Inhibition Rate (%): 30.8%
SNU-5 sphere cells; [29]
  Average number of formed spheres: 134
  Inhibition Rate (%): 37.1%
SNU-5 sphere cells; [30]
  Average number of formed spheres: 149.5
  Inhibition Rate (%): 38.0%
SNU-5 sphere cells; [31]
  Average number of formed spheres: 114.5
  Inhibition Rate (%): 46.2%
SNU-5 sphere cells; [32]
  Average number of formed spheres: 120
  Inhibition Rate (%): 51.0%
[1]
  Western blot recognition of the antigen protein: specifically bound to the antigen protein
[2]; 3 negative sections, Example 8
  staining of negative tissue sections: failed to stain
[2]; 3 positive sections, Example 8
  staining of target antigen-positive tissue sections: positively stain
[2]; 10 negative sections, Example 11
  staining of negative tissue sections: did not stain
[2]; 10 positive sections, Example 11
  staining of target antigen-positive tissue sections: positively stain

Several values for one entry are separate records, joined by “and”; a condition that tells them apart may be missing. Equal entries are not always repeated.
